Assay results taken from the supplement of paper PMC10126150.
Sequences with one replicate were seen in a single cluster, so their values are uncertain.

What follows are sequences tested on ATP (assay: switch fluorescence ratio, 500 uM ATP over buffer (Cy3 cluster intensity, sum of 5 cycles each) (fold (ratio)); higher = stronger signal-on switching upon ATP binding; sequences stand for … in TCGTCGGCAGCGTCAGATGTGTATAAGAGACAGTTTTTTTTTTTTTTTTTTTTTTTTT…TC). Details: aptamer strand: ATP DNA aptamer (quencher-CACCTGGGGGAGTATTGCGGAGGAAGG + anchor), 100 nM annealed; ATP concentration: 500 uM; one replicate.
How it was run: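 After annealing to 100 nM quencher-labelled ATP aptamer, Cy3-labelled switching-strand clusters on a modified Illumina MiSeq flow-cell were imaged in selection buffer. A second image followed after 15 min with 500 uM ATP at 22 °C, and five such buffer/ATP cycles were done, each separated by NaOH stripping and re-annealing. The fluorescence ratio, averaged per switch-domain sequence, is summed target-cycle over summed buffer-cycle Cy3 intensity per cluster, with clusters outside 100-1000 RFU excluded.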
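Also: ATP exposure 15 min at 22 °C before imaging.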

Sequence	switch fluorescence ratio
GTAAAATCTA	1.03
GGATACAGGG	1.05
AACAATTAAG	0.97
GCTCCTATCT	1.1
CGGTTGTAC	1.16
TGGTCATCTC	1.01
GTAGGATACG	1.06
AACCCTCTTG	1.02
CGGGCGCTAC	3.83
CTTGGCCAAT	1.02
AGTCTTCGC	0.91
TGGAGTTCAT	0.981
GCTAGGTATA	0.993
TGGGATAAG	0.986
AAGAATTAT	1
GCTAGAGTC	0.992
GGTACATTCA	1.02
CGATGCTAGC	1.28
AGATTGGTTT	0.999
GCAACCGAAT	1.05
GTTGCGAGTA	1.02
ATTGATGCCG	0.974
GCCGCCAAGC	1.45
GTCCGCAGGA	1.06
GGCATTGAAA	1.18
AACACGGACA	1.52

Sequence	switch fluorescence ratio
AACATAGCAG	1.02
ATGACTAAAC	1.05
CTATAAGAAG	0.999
CTTCCTTCCG	1.59
TTGCCTTT	0.965
CTCTACCCCT	1.12
TGATCCCTGT	1.02
CCATCCGGGA	1.33
ACTAATATTA	1.01
GATCGGGGA	1
AACTGGCTTC	0.989
AGAAGCCCAT	1.04
TACAGCAATT	1.74
ATATTGAACC	1.01
CAGTTCCATT	1.02
TAGTTCTTTA	1.03
GCAACCTGTA	1.01
AGCAGTCTTC	0.99
CCGCATAAAA	3.8
GCTTCACCG	1.13
CATCTCGCCG	1
TAAATTTT	1.05
TACGCATTAT	2.38
CCTTTCCGAT	1.44
TGGTGTTAAA	0.997
CTTCAAATGT	0.958

Sequence	switch fluorescence ratio
AGTATATTG	1.01
AACTAATAAT	1.02
AGGGCCTTTG	1.04
CTGCACACAC	2.89
ATCCGTGGAT	1.02
TAACCCTCCT	1.36
TGCGGACACA	0.953
CCGCGGGACT	5.93
GTATGGTCAA	0.975
ATGCTTAGAT	0.984
ATTTTGCGGG	0.976
GGACGGGGAG	0.959
CGCTGGTGTA	1.01
TGTGTATCAG	0.944
GGTAAAACCC	1.04
GGGAGGATTG	0.968
CCGAGAGTTC	1.25
AACGCCAGCC	1.17
CTTGGTTGAA	1.03
GATGGGGAAC	0.969
ATCAAGTCAC	1.12
CTGACAACAT	1.23
TGAGCCGCTG	0.999
GGTAAAAGTA	0.988
GCTTAAGATT	1.1
ACGCCGAAAA	1.17

Sequence	switch fluorescence ratio
AGAGAACACA	1.09
CATCAGAGCA	1.04
TAGGAGTTCC	1.02
TCCACTCTTA	1.01
GTGGGCG	1.06
ATTTTGTT	1.01
CCTCTGAGGG	1.11
CACTGATCTG	0.96
CATCCCCTAG	1.21
CATAATCCAG	0.99
GTCGTCCGGT	1.02
TTGGCGTTAT	1.01
CATACTCCTT	1.13
GACATAATAT	1.06
TGGTGTGGCT	1.02
AGGGTCAGAA	1.03
ATAGGGGGCC	1.04
TGGTATTACG	1.01
GGCCGATCGT	1.01
CGTAGAGTG	0.937
TTGAGAATAG	1.01
TAAAGGCAGC	0.995
AATGGTCCAT	0.995
CGGCAAAGGA	0.984
TTGGCTCTG	0.971
ATCCTTTGAC	1.08

Sequence	switch fluorescence ratio
GGGGGAGGA	0.985
TTCGCATGAT	1.18
GGTCAATGAA	0.97
TCGCCCTGCT	0.968
CGCAGGTGAA	1.8
TGATAAACAC	1.12
TAGCGAAAAC	1.13
CGTGGTGATC	1.01
GGTTACTTTT	0.989
TATCTGGCTA	0.983
TTCTATAGAA	0.971
AATGAGAGGG	0.94
TTAAGTCGGT	0.996
CGAGCGGCCT	1.02
GCAACTATTT	1
GGCGGTGCTG	0.956
ATTGTAAGGT	0.979
GCATTTGGAG	1.03
GATACGTATT	1.35
TATGCGAGGA	1.04
TTTCTGTAAC	1.01
ATTTGTAT	1.05
AGTTGATGGA	0.977
GGAGTGCCCG	1
CGTCAGGGTG	1.01
ATAAAAATCT	1

Sequence	switch fluorescence ratio
ACGATGCCCA	1.05
GCTATGGTTC	0.999
AGTAGGCCTC	0.97
GCTTCTATTT	1.04
AAGACACGGA	0.993
CTTTCGTTGG	0.979
TGTGTACCGT	0.949
AGAGAAATAG	1.01
TCCGAGTCTG	1.27
CCAGCATCC	1.48
CAGGACATGC	1.15
TTGATTTAGA	0.998
ACTCTTTAGC	1.02
TGTGCTTGGT	1.02
CCGAAACGGA	1.06
TATGATTACT	1.02
GCAAGTTTTA	0.992
TTTGGAACGC	1.1
AATGTTATCG	0.961
AGTTCGCGAG	1.05
GACACCGGGA	1.01
GGTCTTTGCT	1.01
AGTTTTG	0.976
TAAGTAGAGT	1
ATTGGATTAA	0.957
GTCTGGCTAA	1.02

Sequence	switch fluorescence ratio
GGGTTATCCA	1.01
CAATAATATT	1.03
TTCAAACGGC	0.977
ACCCGGGCGC	0.979
TAACCAGATG	1.11
TGGTTAGTTC	0.973
TGGTCGATTG	1.02
GAACCTAGGA	0.99
GCGTTGTGAG	1.01
ACTCGGGCGT	1.19
CTGATCACCG	1.01
CATGCGAGGA	1.03
CGAGAAAATC	1.03
GTTTTAACGC	1.02
GCGAGCGGGG	0.964
AGGCGGTGGT	0.924
ATGTAAGGGC	1.15
GGGTTGTCCC	1.01
AAGTCCCG	0.991
GCTAAAGATA	1.02
ACGTAATCCG	1.03
GGTTGCTAG	0.984
TAACTTAGGT	0.976
TATTAGGGA	0.998
TCTATGAACG	0.96
TAACCAACCA	1.06

Sequence	switch fluorescence ratio
ATCTTCCACG	1.42
CTGGAGACCG	1
CGAGTGAGAG	0.997
GGTCATATTT	1.01
CCAGTAGTGG	1.01
CATGACATTG	1.08
GGTGGGTCAC	0.966
AACACGTGTT	0.965
CAGGTTATAG	1.01
TCCTTATGGC	1.08
GGTGGTTAGC	0.978
ATAGAAACTT	1.09
GCATGAGGG	1.02
GCTAGTATTT	0.926
CCGTCTCGCC	3.09
TGGGGGTAG	0.994
TAATGAATGG	0.926
AAATGACATC	1.01
GCACGCACGT	1.51
